The record followed here is PubChem BioAssay AID1745853 (National Center for Advancing Translational Sciences (NCATS), 2022).

The list shows a part of the results. Further columns of the screen follow, without active or inactive calls.

Common to all, as to assay: Primary Screen for Target Class Profiling of Small Molecule Inhibitors of Methyltransferases
The target in experiment [1] is Glycine N-methyltransferase (Homo sapiens) (UniProt Q14749). Conditions: purified enzyme, MTase-Glo SAH luminescence; measured here: GNMT inhibition; at 40 µM; stronger effect = lower value. In short, it runs like this:
(§1)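 Each enzyme was reacted with SAM and its substrate, with compounds tested once at 40 uM; SAH formed was read by MTase-Glo luminescence.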

Experiment [2] concerns the target Guanidinoacetate N-methyltransferase (Homo sapiens) (UniProt Q14353). The conditions noted are these: purified enzyme, MTase-Glo SAH luminescence; measured here: GAMT inhibition; at 40 µM; stronger effect = lower value. In short, it runs like this: as §1
Experiment [3] addresses Histamine N-methyltransferase (Homo sapiens) (UniProt P50135). Conditions: purified enzyme, MTase-Glo SAH luminescence; measured here: HNMT inhibition; at 40 µM; stronger effect = lower value. In short, it runs like this: as §1
Experiment [4] addresses Nicotinamide N-methyltransferase (Homo sapiens) (UniProt P40261). Conditions: purified enzyme, MTase-Glo SAH luminescence; measured here: NNMT inhibition; at 40 µM; stronger effect = lower value. In short, it runs like this: as §1
Experiment [5] concerns the target Phenylethanolamine N-methyltransferase (Homo sapiens) (UniProt P11086). The conditions noted are these: purified enzyme, MTase-Glo SAH luminescence; measured here: PNMT inhibition; at 40 µM; stronger effect = lower value. In short, it runs like this: as §1
% is set by controls: 0 for no effect and ±100 for the full control effect.

Consider `CC(NC(=O)CCn1ccc2cc(S(=O)(=O)N3CCCCC3)ccc21)c1ccccc1` (stereo not given), for which the activity change, negative = inhibition in experiment [1] was -0.541%; in experiment [2] it was 0.072%; in experiment [3], 1.46%; in experiment [4] it was -6.2%; in experiment [5], -0.323%.

For the molecule `Cc1ccc(-c2nnn3c2nc(NCc2ccc4c(c2)OCO4)c2ccccc23)cc1`, the activity change, negative = inhibition was 3.82% in experiment [1]; 1.25% in experiment [2]; 7.35% in experiment [3]; 7.1% in experiment [4]; 1.03% in experiment [5].

With `Cc1cc(C)cc(N2C(=O)c3cc4sccc4n3CC2(C)C(=O)NC2CCCCCCC2)c1` (stereo not given), the activity change, negative = inhibition in experiment [1] worked out at 5.67%; in experiment [2], 0%; in experiment [3] it was 8.84%; in experiment [4] it was 8.29%; in experiment [5], 4.37%.

`CNc1nc2c(s1)C[C@]1(C)CCC([C@H](C)C(=O)N3CCSCC3)[C@H](O)[C@H]1[C@@H]2C` (stereo not given in full): the activity change, negative = inhibition in experiment [1] was -7.05%; in experiment [2], -6.92%; in experiment [3] it was -3.8%; in experiment [4] it was -16.6%; in experiment [5], -7.24%.

For the molecule `Cc1cc(C)c(/C=C2\C(=O)Nc3ccccc32)[nH]1`, the activity change, negative = inhibition was -13.7% in experiment [1]; 0.047% in experiment [2]; -4.47% in experiment [3]; -6.56% in experiment [4]; 1.76% in experiment [5].

Turning to `COc1ccc(CCN2CCC(CN(C)C(=O)C3CCCCO3)CC2)cc1` (stereo not given), the activity change, negative = inhibition in experiment [1] was -3.24%; in experiment [2] it was -6.53%; in experiment [3], -1.46%; in experiment [4], -7.7%; in experiment [5], 0.309%.

As to `Cn1c(=O)n(C)c2cc(S(=O)(=O)Nc3cccc(C(=O)O)c3)ccc21`, the activity change, negative = inhibition in experiment [1] was -1.53%; in experiment [2], 0%; in experiment [3] it was 3%; in experiment [4], 10.4%; in experiment [5], -1.6%.

For the molecule `Cc1cc(C)cc(-c2cnc3cc(Cl)c(-c4cccc(O)c4)cc3c2OCCCN)c1`, the activity change, negative = inhibition in experiment [1] is -8.39%; in experiment [2], -10.2%; in experiment [3], -24%; in experiment [4] it was -93.3%; in experiment [5] it was -9.66%.

Take `CC1=C2C(=O)C=C(CO)[C@@H]2[C@H]2OC(=O)[C@H](C)[C@@H]2[C@@H](O)C1`: the activity change, negative = inhibition in experiment [1] was -0.682%; in experiment [2] it was 0.164%; in experiment [3], 6.55%; in experiment [4] it was -8.53%; in experiment [5] it was -0.161%.

Regarding `O=C(NCc1ccccc1Cl)c1ccc2c(=O)nc3c(-c4ccccc4F)n[nH]n3c2c1`, the activity change, negative = inhibition in experiment [1] was -24.9%; in experiment [2], 4.81%; in experiment [3], 1.06%; in experiment [4], -0.818%; in experiment [5] it was -5.66%.

Take `Cn1c(=O)n(C)c2cc(S(=O)(=O)N3CCN(c4ccccn4)CC3)ccc21`: the activity change, negative = inhibition was -0.026% in experiment [1]; -1.86% in experiment [2]; -5.68% in experiment [3]; -1.3% in experiment [4]; -11.6% in experiment [5].

Regarding `CN1C(=O)c2cc(C(=O)NCc3cccnc3)nn2CC1(C)C(=O)NC1CCCCCC1` (stereo not given), the activity change, negative = inhibition in experiment [1] was 1.74%; in experiment [2], 4.67%; in experiment [3] it was -7.4%; in experiment [4], 1.65%; in experiment [5], 2.94%.

Consider `O=C(NCCc1csc(-c2ncccn2)n1)C1NCCc2[nH]cnc21` (stereo not given), for which the activity change, negative = inhibition was -4.84% in experiment [1]; -7.79% in experiment [2]; -6.99% in experiment [3]; -12.3% in experiment [4]; -8.63% in experiment [5].

Turning to `CC1(C(=O)NC2CCCCC2)Cn2c(cc3sccc32)C(=O)N1Cc1ccco1` (stereo not given), the activity change, negative = inhibition in experiment [1] was -2.6%; in experiment [2], 4.73%; in experiment [3], 3.22%; in experiment [4], -0.365%; in experiment [5] it was -1.5%.

As for `CCCn1c(=O)c2ccc(C(=O)NC3CCCC3)cc2n2c(SCC(=O)NC(C)(C)C)nnc12`, the activity change, negative = inhibition in experiment [1] is -2.69%; in experiment [2], 0.774%; in experiment [3], 5.38%; in experiment [4], 0.024%; in experiment [5] it was 5.46%.

As for `O=C(c1cn[nH]c1)N1CC2(CN(Cc3cccc(Cl)c3)CC2COc2ccccc2)C1` (stereo not given), the activity change, negative = inhibition was -9.94% in experiment [1]; -2.19% in experiment [2]; -3.56% in experiment [3]; -7.82% in experiment [4]; -16.2% in experiment [5].

Consider `CCCOc1ccc(CN2C(=O)c3cc4occc4n3CC2(C)C(=O)NC2CCCCCCC2)cc1` (stereo not given), for which the activity change, negative = inhibition in experiment [1] was -0.169%; in experiment [2], 0%; in experiment [3], 6.13%; in experiment [4], -7.88%; in experiment [5], -0.878%.

Regarding `Cc1ccccc1CN1C(=O)c2nc3ccccc3n2CC1(C)C(=O)NC1CCCC(C)C1C` (stereo not given), the activity change, negative = inhibition in experiment [1] is 4.29%; in experiment [2], 2.51%; in experiment [3], 3.29%; in experiment [4] it was 1.02%; in experiment [5], 1.13%.

On to `COc1ccc(-c2nc3c(c(-c4ccccc4)n2)CN(C(=O)c2ccc(F)cc2)CC3)cc1`, for which the activity change, negative = inhibition is -7.07% in experiment [1]; -10% in experiment [2]; -7.95% in experiment [3]; -18.9% in experiment [4]; -16.1% in experiment [5].

As to `COc1ccc2c(c1)C(COCc1ccc(S(C)(=O)=O)cc1)CC(C)(C)O2` (stereo not given), the activity change, negative = inhibition in experiment [1] is -9.19%; in experiment [2], -8.79%; in experiment [3], -2.77%; in experiment [4], -15%; in experiment [5], -7.61%.

For `CC(=O)Nc1cccc(C(=O)NCc2nn(Cc3ccccc3)c3ccccc23)c1`, the activity change, negative = inhibition in experiment [1] is -0.246%; in experiment [2] it was 2.54%; in experiment [3], -0.684%; in experiment [4], -5.84%; in experiment [5], -0.11%.

Turning to `COCCCNC(=O)C1(C)Cn2nc(-c3ccccc3)cc2C(=O)N1c1ccc(C)c(C)c1` (stereo not given), the activity change, negative = inhibition in experiment [1] is 2.4%; in experiment [2], 4.91%; in experiment [3], 0.86%; in experiment [4], 5.43%; in experiment [5] it was -4.51%.

Regarding `COCc1nc(C2CC(NC(=O)c3nn(C)c4c3CCCC4)C2)cc(=O)[nH]1` (stereo not given), the activity change, negative = inhibition in experiment [1] is -2.54%; in experiment [2], -2.38%; in experiment [3], -0.389%; in experiment [4], -3.07%; in experiment [5], 0.882%.

`CCC(C)Nc1nc2c(S(=O)(=O)c3ccc(C(C)C)cc3)nnn2c2ccccc12` (stereo not given): the activity change, negative = inhibition in experiment [1] is -0.979%; in experiment [2], 3.96%; in experiment [3], 0.386%; in experiment [4], 2.11%; in experiment [5], -3.53%.

For the molecule `CCCCN(CCCC)C(=O)CN1C[C@H](c2ccc3c(c2)OCO3)[C@@H](C(=O)O)[C@@H]1c1ccc(OC)cc1`, the activity change, negative = inhibition in experiment [1] was -14.5%; in experiment [2], -0.16%; in experiment [3], 10.5%; in experiment [4] it was -23.8%; in experiment [5], -1.94%.

With `COc1ccc(CC(=O)N2CCCN(c3cc(-c4ccccc4)[nH]n3)CC2)cc1`, the activity change, negative = inhibition in experiment [1] is -3.46%; in experiment [2], 0.256%; in experiment [3], -3.51%; in experiment [4], -3.85%; in experiment [5], -2.87%.

As to `O=C(c1ccc2c(=O)nc3c(-c4cccc(F)c4)n[nH]n3c2c1)N1CCN(c2ccccc2)CC1`, the activity change, negative = inhibition is -19.8% in experiment [1]; 0% in experiment [2]; -0.121% in experiment [3]; -5.03% in experiment [4]; -1.8% in experiment [5].

On to `O=C(Nc1n[nH]c(Cc2ccccc2)n1)N1CCN(C(=O)c2ccco2)CC1`, for which the activity change, negative = inhibition is -6.37% in experiment [1]; -3.28% in experiment [2]; -0.885% in experiment [3]; -5.37% in experiment [4]; 4.17% in experiment [5].

`CCN1CCN(C(=O)Cn2c(=O)oc3cc(S(=O)(=O)NCc4ccccc4)ccc32)CC1`: the activity change, negative = inhibition was 1.6% in experiment [1]; 1.88% in experiment [2]; 2.47% in experiment [3]; 6.78% in experiment [4]; -0.212% in experiment [5].
